In PubChem BioAssay AID445 (National Center for Advancing Translational Sciences (NCATS), 2006):
About 40 (0.04%) of roughly 110,000 compounds were called active. Inconclusive results, whose numbers are uncertain, are shown with a selection of clear calls. Calls come from the whole dose curve; as a rule, active = well fitted curve in the direction sought with a large enough effect in the signal ratio (not every such curve was filed as active); inconclusive = small, poorly fitted or top-dose-only effect, or a change in a side signal; inactive = flat fitted curve, though single readings scatter; the % refers to the signal ratio. Potencies of inconclusive entries are doubtful fits and often do not repeat.

Assay: IkB Signaling;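 for IkBa stabilization activation: 0% = basal untreated cells and 100% = reference inhibitor full response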
Conditions: ABC-DLBCL IkBa-CBG/CBR dual luciferase ratio (green luciferase fused to IkBa over red control in OCI-Ly3 lymphoma cells), 4 h; IkBa stabilization activation: at 57.1 µM (top of the series), scaled: untreated 0%, proteasome inhibitor 100% unless noted
How it was run: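 In this assay, an IκBα–CBG68 fusion accumulates when IKK-driven degradation is blocked; native CBR normalizes for cell number. OCI-Ly3 cells were treated 4 h with compound and doxycycline, then green and red light read after Chroma-Glo addition.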
Potency is the fitted concentration of half-maximal effect.

SMILES | IkBa stabilization activation | Potency
COc1ccc(C)cc1NCc1cccc(OC)c1OC | inactive | 
Fc1ccc2c(c1)NC(c1ccncc1)=NC(c1cccs1)=N2 | inconclusive: -1.5% [signal inhibitor] | 
Cc1oc(-c2nc3ccccc3n2C)cc1C(=O)c1ccccc1 | inconclusive: 2.52% [signal inhibitor] | 
COc1ccc2c(c1)CCc1c(C(=O)Nc3c(C)nn(Cc4ccc(C)cc4)c3C)noc1-2 | inactive | 
COc1ccc(-c2cc(C(=O)Nc3cccc(C(C)=O)c3)no2)cc1 | inactive | 
COC(=O)c1nnn(CC(=O)Nc2ccc(Br)c(C)c2)c1N | inactive | 
Fc1ccccc1-c1nc(-c2ccccc2)no1 | inactive | 
COc1ccc(NC(=O)c2ccc(COc3ccccc3OC)o2)cc1OC | inconclusive: 5.13% [signal inhibitor] | 
CCn1cc(C(=O)NCc2ccccc2)c(=O)c2cc(S(=O)(=O)N3CCCCCC3)ccc21 | inconclusive: -0.0229% [signal inhibitor] | 
COc1ccc(Br)cc1CNC(=O)C1CCCCN1S(=O)(=O)c1ccc(F)cc1 (stereo not drawn) | inconclusive: 1.78% [signal inhibitor] | 
Cc1ccc(OCc2nc3ccccc3n2Cc2ccccc2Cl)cc1 | inconclusive: 10.8% [signal inhibitor] | 
COc1cccc(OCC(=O)N(Cc2nc(-c3ccc(Cl)cc3)no2)C(C)C)c1 | inconclusive: 7.11% [signal inhibitor] | 
O=C(Cc1ccccc1)Nc1c(C(=O)Nc2ccccc2F)oc2ccccc12 | inconclusive: 8.63% [signal inhibitor] | 
CCOc1ccc(-c2cc(CCCC(=O)N3CCN(c4ccc(OC)cc4)CC3)no2)cc1 |  | inconclusive: 3.98 µM [signal inhibitor, full curve]
Cc1cccc(CNc2ccnc(-c3cccc(C#N)c3)n2)c1 | inactive: 6.4% [at 11.4 µM, scaled: untreated 0%, proteasome inhibitor 100%] | 
CCn1c2ccccc2c2nnc(SCc3cc(=O)n4ccsc4n3)nc21 | inactive | 
Cc1ccc(-c2noc(CCC(=O)NC3CCCc4ccccc43)n2)cc1 (stereo not drawn) | inactive | 
O=C(Cn1ncc2c(=O)oc3ccccc3c21)NCc1ccc(Cl)cc1 | inconclusive: 0.11% [signal inhibitor] | 
O=C(NCCCN1CCN(c2ccccc2F)CC1)c1nnc(Cc2ccc(Cl)cc2Cl)o1 | inconclusive: 17.3% [signal inhibitor] | 
CCOC(=O)c1c(NC(=O)COc2ccc(F)cc2)sc2c1CCC(C)C2 (stereo not drawn) | inconclusive: 1.12% [signal inhibitor] | 
N#C/C(=C\c1ccc(-c2cc(Cl)ccc2Cl)o1)C(=O)Nc1ccccc1C(=O)O |  | inconclusive: 20 µM [signal inhibitor]
O=C(CSc1nc2ccccc2n1Cc1ccccc1Cl)NCc1ccccc1 | inconclusive: 3.18% [signal inhibitor] | 
COc1ccccc1CC(=O)N1CCN(c2cccc(C(F)(F)F)c2)CC1 | inconclusive: 2.04% [signal inhibitor] | 

SMILES | IkBa stabilization activation | Potency
Cc1cc(C)c(Cn2c(C(O)c3ccccc3)nc3ccccc32)c(C)c1 (stereo not drawn) | inconclusive: 2.6% [signal inhibitor] | 
CCNc1ncc2nc(-c3cc(F)cc(F)c3)c(=O)n(CCc3ccccc3)c2n1 | inactive: -5% [at 11.4 µM, scaled: untreated 0%, proteasome inhibitor 100%] | 
N#C/C(=C(/O)COC(=O)CCC1CCCCC1)c1nc2ccccc2[nH]1 | inconclusive: 12.9% [signal activator] | 
COc1ccccc1-c1cc(C(=O)NCc2ccccc2)no1 |  | inconclusive: 15.8 µM [signal inhibitor, partial curve]
Cn1c(=O)c2[nH]c(CS(=O)(=O)Cc3nc4c([nH]3)c(=O)n(C)c(=O)n4C)nc2n(C)c1=O | inactive: 1.31% [at 11.4 µM, scaled: untreated 0%, proteasome inhibitor 100%] | 
CCOC(=O)c1c(-c2ccc(OC)cc2)oc2ccc(OCc3ccc(C(=O)OC)cc3)cc12 | inconclusive: 3.95% [signal inhibitor] | 
CCNc1c(NC(=O)c2cc(OCC)c(OCC)c(OCC)c2)c(=O)oc2ccccc12 | inconclusive: 16.7% [signal inhibitor] | 
COc1ccccc1CNc1cc(-c2cccnc2)ncn1 | inactive: 0.375% [at 11.4 µM, scaled: untreated 0%, proteasome inhibitor 100%] | 
CC1(C)Cc2c(sc3c2c(=N)n(Cc2ccco2)c(=O)n3CC(=O)Nc2ccc(Cl)cc2)CO1 | inconclusive: 13.5% [signal inhibitor] | 
CC(C)C(OC(=O)c1cc2occc2n1C)C(=O)NCc1ccc2c(c1)OCO2 (stereo not drawn) | inconclusive: 1.08% [signal inhibitor] | 
COc1cccc(NC(=O)CN2CCN(S(=O)(=O)c3ccc(C(C)C)cc3)CC2)c1 | inconclusive: 2.21% [signal inhibitor] | 
Cc1ccc2oc(-c3ccc(C)c(NC(=O)/C=C/c4ccc(Cl)cc4)c3)nc2c1 |  | inconclusive: 20 µM [signal inhibitor, partial curve]
CC(C)C(=O)Nc1cc(C(F)(F)F)ccc1N1CCOCC1 | inactive | 
Cc1cc(C)cc(NC(=O)Cn2cc(C(=O)c3cccs3)c3ccccc32)c1 | inconclusive: 9.01% [signal inhibitor] | 
COc1ccc(Nc2c(-c3ccc(C)o3)nc3cc(C)ccn23)cc1 | inconclusive: 2.3% [signal inhibitor] | 
Cc1ccc2[nH]c3c(=O)n(CC(=O)N(CCN(C)C)Cc4ccccc4)ncc3c2c1 | inactive | 
Cc1ccc2oc(C(=O)NCc3ccc4c(c3)OCO4)c(C)c2c1 | inactive | 
CCOc1ccc(NC(=O)c2cnsn2)cc1 | inactive | 
CCOc1ccc(N2CC(NC(=O)C3CCCCC3)CC2=O)cc1 (stereo not drawn) | inconclusive: 0.606% [signal inhibitor] | 
Cc1cccc(C)c1-n1ncc(C(=O)NC2CCCC2)c1C1CCN(C(=O)OC(C)(C)C)CC1 | inconclusive: 1.79% [signal inhibitor] | 
O=C(c1ccc2c(c1)CCN2S(=O)(=O)c1ccc(Cl)cc1)N1CCN(c2ccc(F)cc2)CC1 | inconclusive: 2.12% [signal inhibitor] | 
O=C(O)c1cc(-c2ccccc2)nc2ccccc12 | inactive | 
CC(=O)O[C@]1(C(C)=O)CC[C@H]2[C@@H]3C[C@H](C)C4=CC(=O)CC[C@]4(C)[C@H]3CC[C@@]21C | inconclusive: 6.05% [signal activator] | 

SMILES | IkBa stabilization activation | Potency
Cc1nc(NCc2ccc3c(c2)OCO3)c2oc3ccccc3c2n1 | inconclusive: -2.77% [signal inhibitor] | 
Nc1c(C(=O)NCC2CCCO2)c2nc3ccccc3nc2n1-c1ccccc1 (stereo not drawn) | inconclusive: -0.135% [signal inhibitor] | 
CC1=NN(c2ccccc2)C(=O)[C@@H]1N=Nc1ccc(S(N)(=O)=O)cc1 | inactive: -0.115% [at 11.4 µM, scaled: untreated 0%, proteasome inhibitor 100%] | 
O=C(NCCc1ccc(Cl)cc1)c1ccc2c(c1)N(Cc1ccc(Cl)cc1)C(=O)CS2 | inconclusive: 0.888% [signal inhibitor] | 
CCN(Cc1ccccc1)Cc1c(O)ccc2oc(C)c(C(=O)Nc3ccc(C)cc3C)c12 | inconclusive: -1.65% [signal inhibitor] | 
CC(C)CNc1cc(=O)n(C)c(=O)n1C | inactive | 
Cc1cccc(N2CCn3c2nc2c3c(=O)n(C/C=C/c3ccccc3)c(=O)n2C)c1 | inconclusive: 1.82% [signal inhibitor] | 
CCCCN(CC)c1nc(-c2ccccc2F)nc2ccccc12 | inconclusive: -1.14% [signal inhibitor] | 
CC1(c2ccccn2)Nc2ccccc2-c2nc3ccccc3n21 (stereo not drawn) | inactive | 
COc1ccc(-c2cc(C(=O)N3CCN(c4ccccc4)CC3)no2)cc1 |  | inconclusive: 5.01 µM [signal inhibitor, partial curve]
CCc1nnc(NC(=O)c2nc(SCc3ccccc3F)ncc2Cl)s1 | inconclusive: 7.72% [signal inhibitor] | 
CCCCOc1ccc(Cn2c(=O)oc3ccc(C)cc32)cc1OC | inconclusive: 1.74% [signal inhibitor] | 
COc1ccc2c(c1)c(=O)c(C(=O)c1ccc(F)cc1)cn2CC(=O)Nc1ccc2c(c1)OCO2 |  | inconclusive: 39.8 µM [rising, single point]
CCOC(=O)CNC(=O)c1sc2nc(C)cc(C)c2c1N | inactive | 
CC(C)Cc1nc2oc3c(N4CCN(CCO)CC4)ncnc3c2c2c1CCCC2 | inactive | 
Cc1ccc(S(=O)(=O)N(CC(=O)NCCSc2ccc(Cl)cc2)c2ccccc2C)cc1 | inconclusive: -2.31% [signal inhibitor] | 
Cc1cc(Br)ccc1NC(=O)c1sc2nc3n(c(=O)c2c1C)CCCC3 | inconclusive: 0.279% [signal inhibitor] | 
NC(=O)c1c(NC(=O)c2cc3ccccc3o2)sc2c1CCC2 |  | inconclusive: 12.6 µM [signal inhibitor, partial curve]
COc1ccc(Cl)cc1C(=O)Nc1nnc2n1CCS2 | inconclusive: 0.238% [signal inhibitor] | 
COc1ccc(CN2C(=O)C3C4C=CC(C4)C3C2=O)cc1 (stereo not drawn) | inactive | 
CN(Cc1ccccc1)C(=O)CSc1nc(-c2ccc(F)cc2)cc(C(F)(F)F)n1 | inconclusive: 4.3% [signal inhibitor] | 
COc1ccc(NC(=O)C2CCCN(c3nnc(C)c4c(C)n(-c5ccccc5)nc34)C2)cc1Cl (stereo not drawn) | inconclusive: -2.74% [signal inhibitor] | 
